# Source: the supplement of paper PMC4604168 (melanoma cell lines)
# This is one part of the list. Repeats are few or missing, and single values can be far off.
# Tested on: WM3526
# Assay: cell count relative to DMSO control; melanoma cells; higher = more viable cells
# Details: library dose: standard library concentration; 72 h
# 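Also: cells treated in 1,536-well plates, then fixed and DAPI-stained, with nuclei counted from automated high-throughput microscope images.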
row,Compound,cell count [%]
1,"CC(C)(C)c1cnc(CSc2cnc(NC(=O)C3CCNCC3)s2)o1 + C[C@@H]1CCN(C(=O)CC#N)C[C@@H]1N(C)c1ncnc2[nH]ccc12 [CP690550] (first compound 0.05 µM, partner dose 5 µM)",88.4
2,"CC(C)(C)c1cnc(CSc2cnc(NC(=O)C3CCNCC3)s2)o1 + Oc1nc(-c2ccc(C(F)(F)F)cc2)nc2c1CSCC2 [XAV939] (first compound 0.05 µM, partner dose 10 µM)",87.8
3,"NC(=O)c1ccc(N(C(N)=O)c2c(F)cccc2F)nc1-c1ccc(F)cc1F + C=C(c1ccc(C(=O)O)cc1)c1cc2c(cc1C)C(C)(C)CCC2(C)C [Bexarotene] (first compound 2 µM, partner dose 10 µM)",90
4,"CCc1ccc(CCOc2ccc(CC3SC(=O)NC3=O)cc2)nc1 (configuration not stated) [pioglitazone] + N#Cc1c(O)c2c(-c3ccc(-c4ccccc4O)cc3)csc2[nH]c1=O [A769662] (first compound 10 µM, partner dose 10 µM)",89.4
5,"CC(C)(C)c1cnc(CSc2cnc(NC(=O)C3CCNCC3)s2)o1 + Cc1cc([N+](=O)[O-])ccc1NS(=O)(=O)c1cc(Cl)ccc1Cl [FH535] (first compound 0.05 µM, partner dose 5 µM)",80.7
6,"NC(=O)c1ccc(N(C(N)=O)c2c(F)cccc2F)nc1-c1ccc(F)cc1F + CN(c1ncccc1CNc1nc(Nc2ccc3c(c2)CC(=O)N3)ncc1C(F)(F)F)S(C)(=O)=O [PF562271] (first compound 2 µM, partner dose 0.4 µM)",74.3
7,"Cc1ccc(NC(=O)c2cccc(N(C)C)c2)cc1NC(=O)c1ccc(O)cc1 + Cc1cc(N2CCOCC2)cc2[nH]c(-c3c(NC[C@@H](O)c4cccc(Cl)c4)cc[nH]c3=O)nc12 [BMS536924] (first compound 10 µM, partner dose 1 µM)",70.7
8,"Cc1ccc(NC(=O)c2cccc(N(C)C)c2)cc1NC(=O)c1ccc(O)cc1 + Cn1cc(/C=C2\C(=O)Nc3cccnc32)c2ccccc21 [GW441756] (first compound 10 µM, partner dose 2 µM)",92.9
9,"CC(C)(C)c1cnc(CSc2cnc(NC(=O)C3CCNCC3)s2)o1 + OCCn1cc(-c2cnc3nnn(Cc4ccc5ncccc5c4)c3n2)cn1 [PF04217903] (first compound 0.05 µM, partner dose 5 µM)",98.2
10,"NC(=O)c1ccc(N(C(N)=O)c2c(F)cccc2F)nc1-c1ccc(F)cc1F + CCCCCCCCc1ccc(CCC(N)(CO)CO)cc1 [fingolimod] (first compound 2 µM, partner dose 10 µM)",20.7
11,"NC(=O)c1ccc(N(C(N)=O)c2c(F)cccc2F)nc1-c1ccc(F)cc1F + C[C@@H](Oc1cc(-c2cnn(C3CCNCC3)c2)cnc1N)c1c(Cl)ccc(F)c1Cl [Crizotinib] (first compound 2 µM, partner dose 1 µM)",84.5
12,"CCCCCCCCc1ccc(CCC(N)(CO)CO)cc1 [fingolimod] + C=C(c1ccc(C(=O)O)cc1)c1cc2c(cc1C)C(C)(C)CCC2(C)C [Bexarotene] (first compound 10 µM, partner dose 10 µM)",24.6
13,"NC(=O)c1ccc(N(C(N)=O)c2c(F)cccc2F)nc1-c1ccc(F)cc1F + O=C(O)c1ccc(-c2c[nH]c3ncc(-c4ccccc4)cc23)cc1C1CCCC1 [GSK650394] (first compound 2 µM, partner dose 0.8 µM)",84.7
14,"CCCCCCCCc1ccc(CCC(N)(CO)CO)cc1 [fingolimod] + CS(=O)(=O)CCNCc1ccc(-c2ccc3ncnc(Nc4ccc(OCc5cccc(F)c5)c(Cl)c4)c3c2)o1 [lapatinib] (first compound 10 µM, partner dose 4 µM)",8.54
15,"CC(C)(C)c1cnc(CSc2cnc(NC(=O)C3CCNCC3)s2)o1 + CN(NC(=O)CC(=O)NN(C)C(=S)c1ccccc1)C(=S)c1ccccc1 [STA4783] (first compound 0.05 µM, partner dose 0.03 µM)",93.4
16,"CCCCCCCCc1ccc(CCC(N)(CO)CO)cc1 [fingolimod] + COc1ccc(Cl)c(Nc2nc3ccccc3nc2NS(=O)(=O)c2cccc(NC(=O)C(C)(C)N)c2)c1 [XL147] (first compound 10 µM, partner dose 4 µM)",38.7
17,"CCCCCCCCc1ccc(CCC(N)(CO)CO)cc1 [fingolimod] + C[C@@H]1CCN(C(=O)CC#N)C[C@@H]1N(C)c1ncnc2[nH]ccc12 [CP690550] (first compound 10 µM, partner dose 5 µM)",38.2
18,"COc1cc2c(Oc3ccc4[nH]c(C)cc4c3F)ncnc2cc1OCCCN1CCCC1 [cediranib] + CCN(CC)CCCCNc1ncc2cc(-c3cc(OC)cc(OC)c3)c(NC(=O)NC(C)(C)C)nc2n1 [PD173074] (first compound 2 µM, partner dose 0.5 µM)",86.4
19,"NC(=O)c1ccc(N(C(N)=O)c2c(F)cccc2F)nc1-c1ccc(F)cc1F + CN(C)S(=O)(=O)c1ccc2c(c1)/C(=C/c1cc3c([nH]1)CCCC3)C(=O)N2 [SU6656] (first compound 2 µM, partner dose 2 µM)",79
20,"CCCCCCCCc1ccc(CCC(N)(CO)CO)cc1 [fingolimod] + COCC[n+]1c2c(n(Cc3cnccn3)c1C)C(=O)c1ccccc1C2=O [YM155] (first compound 10 µM, partner dose 0.002 µM)",34
21,"CC(C)(C)c1cnc(CSc2cnc(NC(=O)C3CCNCC3)s2)o1 + COc1ccc2c(c1)CCC1C2CCC2(C)C(NCCCCCCN3C(=O)C=CC3=O)CCC12 [U73122] (first compound 0.05 µM, partner dose 2 µM)",105
22,"CC(C)(C)c1cnc(CSc2cnc(NC(=O)C3CCNCC3)s2)o1 + COc1ccc(COc2ccc(Cc3cnc(N)nc3N)cc2OC)cc1 [GW2580] (first compound 0.05 µM, partner dose 5 µM)",105
